# Assay results published in publication PMC4335047, “Interaction between the tRNA-Binding and C-Terminal Domains of Yeast Gcn2 Regulates Kinase Activity In Vivo” (PLoS Genetics, 2015).
# Results are given in words; binding and its absence hold for the method and conditions named. For some assays here: Binding seen in cells or lysates may run through a third protein. Some binding calls cover weakened binding; strength is not graded here. For some assays here: Tags and fused reporters may be left off the sequences shown.
# T1: LexA-CTD (Gcn2 residues 1498–1659) (S. cerevisiae) (UniProt P15442)
# T1 sequence: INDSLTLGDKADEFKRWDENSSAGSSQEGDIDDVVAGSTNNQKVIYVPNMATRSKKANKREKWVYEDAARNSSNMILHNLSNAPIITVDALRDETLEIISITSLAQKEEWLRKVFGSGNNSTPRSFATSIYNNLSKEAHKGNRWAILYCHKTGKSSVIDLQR
# T2: GST-CTD (Gcn2 residues 1498–1659) (S. cerevisiae, UniProt P15442 1498-1659)
# T2 construct: Gcn2 of S. cerevisiae, C-terminal domain (CTD), residues 1498-1659; a pGEX vector with the tac promoter points to E. coli; also called GST-GCN2(1498–1659); source: purified GST fusion (P tac, pGEX-5x-1); not shown: GST, N-terminal, kept
# T2 sequence (looked up): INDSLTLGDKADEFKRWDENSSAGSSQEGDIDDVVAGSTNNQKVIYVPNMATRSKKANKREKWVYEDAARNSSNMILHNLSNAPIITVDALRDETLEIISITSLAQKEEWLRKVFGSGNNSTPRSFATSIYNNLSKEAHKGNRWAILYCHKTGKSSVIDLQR
# T3: GST-HisRS (Gcn2 residues 970–1497), wild type (S. cerevisiae) (UniProt P15442)
# T3 sequence: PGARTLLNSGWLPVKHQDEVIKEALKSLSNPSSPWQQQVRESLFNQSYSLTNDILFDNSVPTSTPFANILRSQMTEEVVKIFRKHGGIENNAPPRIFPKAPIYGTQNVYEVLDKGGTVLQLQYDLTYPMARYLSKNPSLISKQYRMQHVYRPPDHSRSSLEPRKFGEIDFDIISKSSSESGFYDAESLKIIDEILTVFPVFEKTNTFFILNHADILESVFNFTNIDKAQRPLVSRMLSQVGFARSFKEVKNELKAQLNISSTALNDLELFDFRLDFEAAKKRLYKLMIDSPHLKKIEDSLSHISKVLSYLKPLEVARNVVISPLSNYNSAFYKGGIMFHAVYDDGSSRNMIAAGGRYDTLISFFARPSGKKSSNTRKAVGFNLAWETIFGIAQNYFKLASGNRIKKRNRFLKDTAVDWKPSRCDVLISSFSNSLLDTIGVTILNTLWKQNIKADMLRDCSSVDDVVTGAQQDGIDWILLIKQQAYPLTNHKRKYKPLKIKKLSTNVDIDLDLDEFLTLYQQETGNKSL
# T4: GST-HisRS (Gcn2 residues 970–1497) Y1092C/T1328S/A1353V (S. cerevisiae) (UniProt P15442)
# T4 sequence: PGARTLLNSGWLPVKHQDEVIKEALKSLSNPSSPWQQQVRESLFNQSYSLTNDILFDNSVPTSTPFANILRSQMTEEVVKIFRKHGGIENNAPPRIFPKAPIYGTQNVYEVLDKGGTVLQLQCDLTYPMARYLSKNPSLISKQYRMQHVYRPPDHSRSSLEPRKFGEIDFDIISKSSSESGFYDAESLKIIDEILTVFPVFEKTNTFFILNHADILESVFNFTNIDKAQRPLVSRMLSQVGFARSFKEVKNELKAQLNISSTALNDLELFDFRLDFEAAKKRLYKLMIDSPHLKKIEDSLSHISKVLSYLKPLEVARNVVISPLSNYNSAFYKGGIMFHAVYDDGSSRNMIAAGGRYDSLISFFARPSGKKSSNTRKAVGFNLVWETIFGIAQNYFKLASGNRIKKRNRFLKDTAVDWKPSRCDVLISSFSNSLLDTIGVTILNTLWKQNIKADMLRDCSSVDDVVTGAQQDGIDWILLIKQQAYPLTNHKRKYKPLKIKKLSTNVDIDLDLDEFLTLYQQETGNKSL
# T5: GST-HisRS (Gcn2 residues 970–1497) D1327K (S. cerevisiae) (UniProt P15442)
# T5 sequence: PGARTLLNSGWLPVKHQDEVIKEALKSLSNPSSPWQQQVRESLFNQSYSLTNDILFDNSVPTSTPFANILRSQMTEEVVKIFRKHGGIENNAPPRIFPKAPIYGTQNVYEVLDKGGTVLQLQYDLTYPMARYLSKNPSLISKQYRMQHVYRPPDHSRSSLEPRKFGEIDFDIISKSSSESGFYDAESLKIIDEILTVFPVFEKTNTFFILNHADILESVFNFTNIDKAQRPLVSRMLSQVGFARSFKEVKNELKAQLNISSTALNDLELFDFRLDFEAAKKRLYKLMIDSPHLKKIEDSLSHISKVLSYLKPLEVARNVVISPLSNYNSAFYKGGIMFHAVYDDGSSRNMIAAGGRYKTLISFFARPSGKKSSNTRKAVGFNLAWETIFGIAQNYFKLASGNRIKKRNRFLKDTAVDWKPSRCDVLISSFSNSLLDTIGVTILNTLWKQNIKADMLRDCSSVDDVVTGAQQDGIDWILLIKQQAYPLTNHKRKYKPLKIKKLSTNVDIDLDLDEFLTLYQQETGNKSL
# T6: GST-HisRS (Gcn2 residues 970–1497) D1327K/Y1092C/T1328S/A1353V (S. cerevisiae) (UniProt P15442)
# T6 sequence: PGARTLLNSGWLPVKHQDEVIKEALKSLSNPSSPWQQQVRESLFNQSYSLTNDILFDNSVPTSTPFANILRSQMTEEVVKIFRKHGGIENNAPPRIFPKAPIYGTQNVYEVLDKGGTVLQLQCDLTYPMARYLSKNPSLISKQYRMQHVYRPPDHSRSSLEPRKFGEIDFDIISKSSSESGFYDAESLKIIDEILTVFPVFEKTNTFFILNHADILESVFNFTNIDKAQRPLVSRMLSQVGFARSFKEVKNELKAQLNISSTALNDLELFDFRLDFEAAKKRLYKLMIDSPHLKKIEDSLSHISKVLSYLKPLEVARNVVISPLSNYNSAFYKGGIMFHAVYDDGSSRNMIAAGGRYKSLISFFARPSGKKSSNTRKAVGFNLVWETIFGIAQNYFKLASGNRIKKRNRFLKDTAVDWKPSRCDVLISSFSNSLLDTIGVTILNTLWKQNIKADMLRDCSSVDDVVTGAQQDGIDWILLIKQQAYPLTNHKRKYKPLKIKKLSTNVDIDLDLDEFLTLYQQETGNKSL
# Key:
# [1] = target: T1, LexA-CTD (Gcn2 residues 1498–1659) (S. cerevisiae); assay: two-hybrid; lexA-CTD(1498–1659) and B42-KD(720–999) in yeast with lexAop-lacZ reporter; β-galactosidase activity; cells under starvation (sulfometuron methyl) or nonstarvation conditions
# [2] = target: T2, GST-CTD (Gcn2 residues 1498–1659); assay: pull-down; purified GST fusions (5 μg) immobilised on glutathione-Sepharose 4B beads; in vitro translated [35S]-HisRS(970–1497), partially purified by ammonium sulfate precipitation; buffer A, 4°C, 2 h; without or with increasing tRNA^Phe or a model mRNA; fluorography; only the target purified
# [3] = target: T7, GST-KD (Gcn2 residues 568–998) (S. cerevisiae, UniProt P15442 568-998); assay: as above
# T7 construct: Gcn2 of S. cerevisiae, kinase domain (KD), residues 568-998; a pGEX vector with the tac promoter points to E. coli; also called GST-GCN2(568–998); source: purified GST fusion (P tac, pGEX-5x-1); not shown: GST, N-terminal, kept
# [4] = target: T3, GST-HisRS (Gcn2 residues 970–1497), wild type (S. cerevisiae); assay: as above
# [5] = target: T4, GST-HisRS (Gcn2 residues 970–1497) Y1092C/T1328S/A1353V (S. cerevisiae); assay: pull-down; purified GST-HisRS fusions (5 μg) immobilised on glutathione-Sepharose 4B beads; LexA-CTD in 500 μg of micrococcal nuclease-treated yeast whole-cell extract; buffer A (20mM Tris/HCl pH7.5, 100mM NaCl, 0.2mM EDTA, 1mM DTT), 4°C, 2 h; immunoblot with anti-LexA; only the target purified
# [6] = target: T5, GST-HisRS (Gcn2 residues 970–1497) D1327K (S. cerevisiae); assay: as above
# [7] = target: T6, GST-HisRS (Gcn2 residues 970–1497) D1327K/Y1092C/T1328S/A1353V (S. cerevisiae); assay: as above
# [8] = target: T3, GST-HisRS (Gcn2 residues 970–1497), wild type (S. cerevisiae); assay: as above
molecule,measurement,setting,value
B42-KD (Gcn2 residues 720–999) (from UniProt P15442 720-999) (domain or fragment),binding,[1],binds
"[35S]-HisRS(970–1497) segment of Gcn2 (domain or fragment, S. cerevisiae, UniProt P15442 970-1497, looked up, [35S]-methionine labeled, Gcn2 of S. cerevisiae, HisRS-related domain, residues 970-1497; P T7-GCN2 (970–1497) in pGEM-3Z; also called [^35S]-methionine labeled HisRS fragment; [^35S]-HisRS domain fragments; source: in vitro translated (TNT T7 Coupled Reticulocyte Lysate System), partially purified by ammonium sulfate precipitation) PGARTLLNSGWLPVKHQDEVIKEALKSLSNPSSPWQQQVRESLFNQSYSLTNDILFDNSVPTSTPFANILRSQMTEEVVKIFRKHGGIENNAPPRIFPKAPIYGTQNVYEVLDKGGTVLQLQYDLTYPMARYLSKNPSLISKQYRMQHVYRPPDHSRSSLEPRKFGEIDFDIISKSSSESGFYDAESLKIIDEILTVFPVFEKTNTFFILNHADILESVFNFTNIDKAQRPLVSRMLSQVGFARSFKEVKNELKAQLNISSTALNDLELFDFRLDFEAAKKRLYKLMIDSPHLKKIEDSLSHISKVLSYLKPLEVARNVVISPLSNYNSAFYKGGIMFHAVYDDGSSRNMIAAGGRYDTLISFFARPSGKKSSNTRKAVGFNLAWETIFGIAQNYFKLASGNRIKKRNRFLKDTAVDWKPSRCDVLISSFSNSLLDTIGVTILNTLWKQNIKADMLRDCSSVDDVVTGAQQDGIDWILLIKQQAYPLTNHKRKYKPLKIKKLSTNVDIDLDLDEFLTLYQQETGNKSL",binding,[2],binds
same,binding,[3],binds
same,binding,[4],binds
"LexA-CTD (Gcn2 residues 1498–1659) (domain or fragment, UniProt P15442 1498-1659) INDSLTLGDKADEFKRWDENSSAGSSQEGDIDDVVAGSTNNQKVIYVPNMATRSKKANKREKWVYEDAARNSSNMILHNLSNAPIITVDALRDETLEIISITSLAQKEEWLRKVFGSGNNSTPRSFATSIYNNLSKEAHKGNRWAILYCHKTGKSSVIDLQR",binding,[5],binds weakly
same,binding,[6],binds
same,binding,[7],binds
same,binding,[8],binds weakly
